± gives the standard deviation of the averaged measurements. Whole data set: some 33,000 sequences, median “E-score (dimensionless, -0.5 to 0.5)” near -0.049, cut for the highest 2% near 0.37. The list shows a part of the results.
system: T1, PmTbr T-box DNA-binding domain (GST fusion); assay: PBM E-score of 8-mer (E-score (dimensionless, -0.5 to 0.5)); Tbr is Tbrain of the sea star Patiria miniata (Pm) or the sea urchin Strongylocentrotus purpuratus (Sp); higher = stronger binding preference; most listed sequences are background and not binding sites; conditions: the construct has about 5 more residues each side
T1 sequence: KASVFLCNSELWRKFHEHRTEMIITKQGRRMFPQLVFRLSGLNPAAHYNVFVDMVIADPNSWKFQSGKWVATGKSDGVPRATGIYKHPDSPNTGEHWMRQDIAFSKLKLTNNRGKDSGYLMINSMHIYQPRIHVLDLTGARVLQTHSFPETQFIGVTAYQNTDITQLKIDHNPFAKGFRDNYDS
Summary of the method: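 GST-fused Tbr T-box DNA-binding domains (the whole T-box plus about five flanking residues) were expressed in BL21 E. coli at 20 °C and purified by glutathione affinity chromatography. Universal Agilent oligonucleotide arrays were made double-stranded by primer extension, incubated with 200 nM protein in PBS (pH 7.5), then scanned and quantified. Every ungapped 8-mer was scored from probe intensities. The Universal PBM Analysis Suite gave each word an enrichment E-score, averaged over duplicate arrays.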

Row | Sequence | PBM E-score of 8-mer
1 | CATATAAA | -0.162 ± 0.014
2 | GAGCCACC | -0.059 ± 0.073
3 | ATGCAAAA | -0.235 ± 0.045
4 | CCTCGAAC | 0.109 ± 0.0078
5 | CTCTCGGA | -0.177 ± 0.042
6 | CATTATGC | -0.144 ± 0.0092
7 | CCCATATA | -0.238 ± 0.036
8 | GGGACACA | -0.0571 ± 0.031
9 | AGTGAAAC | 0.0272 ± 0.073
10 | CCCATCCG | -0.108 ± 0.058
11 | ATATTCTC | -0.0331 ± 0.008
12 | CATATGAC | -0.0735 ± 0.011
13 | GAGTTACA | 0.0401 ± 0.024
14 | AGTTCACG | 0.32 ± 0.02
15 | CCTGGCGC | 0.29 ± 0.056
16 | CCGAGAAG | -0.0729 ± 0.0046
17 | CCGACAAA | 0.103 ± 0.054
18 | CGCTTCGC | 0.279 ± 0.089
19 | AAGTTCAC | 0.159 ± 0.062
20 | CAACTCCC | -0.0742 ± 0.13
21 | CGGTGAGC | -0.0638 ± 0.075
22 | ATAGTGTC | 0.335 ± 0.011
23 | AACCGAAC | -0.115 ± 0.033
24 | CCGCTCGA | -0.219 ± 0.081
25 | CGCAAGTA | 0.16 ± 0.041

Row | Sequence | PBM E-score of 8-mer
26 | CCTGTCTA | -0.1 ± 0.035
27 | AATGGACA | 0.0325 ± 0.009
28 | TGTTATAA | 0.246 ± 0.034
29 | GCGGAGAA | 0.07473 ± 0.0005
30 | ATTCACGG | 0.226 ± 0.019
31 | GTTAAGAA | -0.0589 ± 0.015
32 | AGCTAGTG | 0.108 ± 0.0035
33 | CCTCGTGA | 0.128 ± 0.036
34 | CCCTGTAC | -0.039 ± 0.084
35 | AACCCAAT | -0.294 ± 0.0085
36 | CAACCCAC | 0.0796 ± 0.085
37 | AACACTTC | 0.442 ± 0.014
38 | ATCGGCAC | 0.156 ± 0.07
39 | CTATGGGC | -0.248 ± 0.1
40 | ACCACCCT | 0.0583 ± 0.021
41 | GCCCGGGA | -0.186 ± 0.1
42 | CCCCGCGC | 0.0407 ± 0.011
43 | CACGTATG | 0.164 ± 0.0059
44 | CGGAATCA | -0.101 ± 0.043
45 | AAATGGAG | 0.0758 ± 0.079
46 | GGCCTTCA | -0.15 ± 0.021
47 | ACACGGGA | -0.00943 ± 0.0048
48 | AACCGACA | 0.153 ± 0.026
49 | CAATTTGG | -0.0299 ± 0.041
50 | CGTACCGC | 0.109 ± 0.019

Row | Sequence | PBM E-score of 8-mer
51 | CTCCCACA | 0.0954 ± 0.064
52 | GCTTGTCA | 0.0851 ± 0.047
53 | AGCCTACC | -0.186 ± 0.037
54 | AATATACG | -0.0764 ± 0.031
55 | CGTGTCGA | 0.288 ± 0.052
56 | GCAATAAA | -0.111 ± 0.045
57 | CATAACTC | -0.229 ± 0.00039
58 | CAGGCAAC | -0.0628 ± 0.029
59 | AAGTCTAC | 0.00041 ± 0.015
60 | CCGCACTC | 0.09578 ± 0.00085
61 | ATAAATTC | 0.0357 ± 0.039
62 | AACAAGGT | 0.229 ± 0.016
63 | TACTCCCA | -0.217 ± 0.067
64 | CAGGCTAC | -0.199 ± 0.01
65 | CGCATATC | -0.0673 ± 0.056
66 | CTGGTCAC | 0.198 ± 0.017
67 | GCCCCAGA | -0.14 ± 0.029
68 | CCACACCC | 0.395 ± 0.028
69 | CATGATCG | -0.0386 ± 0.00089
70 | CAAAGCCC | -0.278 ± 0.088
71 | AGGAGTTG | 0.225 ± 0.044
72 | ACGTGGAC | -0.0287 ± 0.1
73 | ACCGGACA | -0.0503 ± 0.06
74 | CGGCTAGA | -0.042 ± 0.019
75 | AAGCATAT | -0.067 ± 0.056

Row | Sequence | PBM E-score of 8-mer
76 | AACCTTCA | -0.149 ± 0.083
77 | AAGATACT | -0.232 ± 0.12
78 | AATGTGGC | 0.163 ± 0.0047
79 | GCGAGCGA | 0.137 ± 0.1
80 | ACCCTCAG | 0.0121 ± 0.00031
81 | ATCGCATG | 0.0742 ± 0.0027
82 | ATAATGTG | 0.262 ± 0.032
83 | CGTATAAG | -0.073 ± 0.011
84 | ATCTGACG | 0.0815 ± 0.024
85 | AATAGATT | -0.116 ± 0.051
86 | CGATTAAG | 0.0336 ± 0.064
87 | CACCCTAG | 0.249 ± 0.037
88 | ACGACAGC | 0.122 ± 0.024
89 | CTTAGTAC | -0.239 ± 0.06
90 | AGAGGTGA | 0.352 ± 0.015
91 | ATCCAGAC | -0.137 ± 0.052
92 | GCACCAAA | 0.143 ± 0.059
93 | GAAAACAC | 0.229 ± 0.033
94 | AGTTAATC | -0.117 ± 0.071
95 | AGTCAACG | -0.0274 ± 0.096
96 | ATGGAACG | -0.179 ± 0.018
97 | AGTTGCGG | 0.0771 ± 0.12
98 | ACAGTTAA | 0.158 ± 0.058
99 | ACGCCCTA | 0.155 ± 0.023
100 | AGCCGTGA | 0.27 ± 0.0098

Row | Sequence | PBM E-score of 8-mer
101 | GTTAATCA | 0.115 ± 0.02
102 | CAACGAAA | -0.0229 ± 0.071
103 | ACGGGAGG | -0.113 ± 0.047
104 | ATTAGGAC | -0.0886 ± 0.029
105 | TCTTACAA | -0.243 ± 0.045
106 | CGGCCCTA | -0.249 ± 0.019
107 | GCACCAGC | 0.148 ± 0.004
108 | GCCGCTCA | -0.158 ± 0.064
109 | GTAAACTA | -0.131 ± 0.014
110 | GTGTTCCA | 0.126 ± 0.038
111 | CCAAGTTC | 0.0302 ± 0.015
112 | AAAACAAC | 0.0511 ± 0.084
113 | AAAATAAG | -0.136 ± 0.11
114 | ATTGCTTC | -0.198 ± 0.029
115 | CAGGTTGA | 0.00316 ± 0.039
116 | CCTCCATC | -0.0398 ± 0.06
117 | CACATAGG | 0.208 ± 0.011
118 | GCGCCTCA | 0.343 ± 0.036
119 | CGAACGCA | -0.05 ± 0.079
120 | AACCGGCA | 0.124 ± 0.017
121 | ATCGCGGC | 0.159 ± 0.024
122 | CCATGCAG | -0.0489 ± 0.084
123 | ACATTTCT | 0.114 ± 0.018
124 | AGGGCAAC | -0.0859 ± 0.086
125 | CACTCAAG | 0.183 ± 0.024

Row | Sequence | PBM E-score of 8-mer
126 | CCCTTAAA | -0.0507 ± 0.076
127 | CCCATATC | -0.113 ± 0.04
128 | ATTTCCAG | -0.149 ± 0.11
129 | GCTTCTAA | -0.158 ± 0.025
130 | CGCAACAA | 0.104 ± 0.036
131 | ATCTTAAT | -0.171 ± 0.13
132 | CTGGTTAC | -0.0261 ± 0.04
133 | CAAGCGAA | -0.0138 ± 0.02
134 | ATTTGGGG | -0.276 ± 0.011
135 | TCGGCCCA | -0.174 ± 0.035
136 | GGCTCGGA | -0.238 ± 0.014
137 | CAAAGTTA | 0.0481 ± 0.042
138 | CCTTAGTC | -0.142 ± 0.043
139 | GAGGCGAC | 0.28 ± 0.012
140 | AGCAACTA | 0.144 ± 0.046
141 | GGTAGGGA | -0.194 ± 0.048
142 | AAGGCCGG | -0.215 ± 0.048
143 | TCGTTACA | 0.0343 ± 0.072
144 | GCTTAGAA | -0.182 ± 0.096
145 | AATCCATC | -0.0744 ± 0.026
146 | CTGTAGCA | -0.0144 ± 0.079
147 | GAGTTCCA | -0.164 ± 0.018
148 | AGCGTGCC | -0.0162 ± 0.0006
149 | ACTGGCTA | -0.161 ± 0.092
150 | CTCAGTAC | -0.165 ± 0.026

Row | Sequence | PBM E-score of 8-mer
151 | CGTTTCTC | 0.0182 ± 0.024
152 | CGCCCCAA | 0.162 ± 0.0052
153 | GCTGTCCC | -0.138 ± 0.045
154 | AGATAGGA | -0.189 ± 0.015
155 | ACATCGAA | 0.0304 ± 0.038
156 | AGGAGTAG | -0.178 ± 0.042
157 | AGGACCAA | -0.19 ± 0.038
158 | AACTCCAA | 0.116 ± 0.019
159 | CCACCTAC | 0.273 ± 0.049
160 | CATAAAAG | -0.163 ± 0.065
161 | CAACAAGA | -0.0364 ± 0.00098
162 | AGAAACAC | 0.212 ± 0.046
163 | CCCGCTAC | -0.0172 ± 0.029
164 | ACTTACAT | 0.11 ± 0.039
165 | AAAAGGAT | -0.0319 ± 0.081
166 | GACGTCAC | 0.172 ± 0.033
167 | ACCATAAC | 0.063 ± 0.034
168 | CCTCTGTC | 0.0968 ± 0.098
169 | CACGTAAA | 0.0269 ± 0.0072
170 | AGCTGCAC | 0.0946 ± 0.0038
171 | GACTCCAC | -0.228 ± 0.018
172 | ACTACCCT | 0.09 ± 0.0018

Reference: the supplement of paper PMC4166925
